From patent US20250243260A1 (ALPINE IMMUNE SCIENCES, published 2025)
Where a chain is given by its changes, count along the chain named. Names may count otherwise.

B1: CD80_193-Fc (Fc fusion)
chain: VIHVTKEVKEYATLSCGHNVSVEELAQTRIYWQKEKKMVLTWMSGDMNIWPEYKNRTIFDIANNLSIVILALRPSDEGTYECVVEKYEKDAFKREHLAEVTLSVKADGSGGGGS[omitted - human IgG4 Fc with S228P (EU numbers)]
notes: also called V11Y, M42W, T62A, L85E
B2: CD80_194-Fc (Fc fusion)
chain: B1 chain with E85L
notes: also called V11Y, M42W, T62A
B3: CD80_196-Fc (Fc fusion)
chain: B1 chain with E52K
notes: also called V11Y, M42W, E52K, T62A, L85E
B4: CD80_197-Fc (Fc fusion)
chain: B1 chain with E35D, W42M, A62T, E85L, Y87Q, T101R
notes: also called V11Y, E35D, Y87Q, T101R
B5: CD80_199-Fc (Fc fusion)
chain: B1 chain with E10G, Y11V, H18Y, W42M, A62T, E85L
notes: also called E10G, H18Y
B6: CD80_200-Fc (Fc fusion)
chain: B1 chain with K9N, E10R, Y11V, H18V, T28Y, W42M, A62T, A71G, E85L
notes: also called K9N, E10R, H18V, T28Y, A71G
B7: CD80_201-Fc (Fc fusion)
chain: B1 chain with E10G, Y11V, H18Y, T28Y, W42M, M47W, A62S, E85L
notes: also called E10G, H18Y, T28Y, M47W, T62S
B8: CD80_203-Fc (Fc fusion)
chain: B1 chain with K9N, E10A, Y11W, H18F, T28H, W42M, M47L, A62E, R73D, E85L
notes: also called K9N, E10A, V11W, H18F, T28H, M47L, T62E, R73D
B9: CD80_205-Fc (Fc fusion)
chain: B1 chain with E10G, Y11V, W42M, D46K, A62T
notes: also called E10G, D46K, L85E
B10: CD80_206-Fc (Fc fusion)
chain: B1 chain with E10G, Y11V, H18T, Q27T, W42M, D46E, M47L, A62T, E85L
notes: also called E10G, H18T, Q27T, D46E, M47L
B11: CD80_207-Fc (Fc fusion)
chain: B1 chain with Y11V, E35D, W42M, A62T, V68T, E85L, T101K
notes: also called E35D, V68T, T101K
B12: CD80_208-Fc (Fc fusion)
chain: B1 chain with E35G, W42G, F59S, A62T, E85L
notes: also called V11Y, E35G, M42G, F59S
B13: CD80_209-Fc (Fc fusion)
chain: B1 chain with T28R, E35G, W42M, M47L, F59S, A62T, E85L
notes: also called V11Y, T28R, E35G, M47L, F59S
B14: CD80_210-Fc (Fc fusion)
chain: B1 chain with E7N, Y11V, E35D, W42M, F59S, A62T, E85L
notes: also called E7N, E35D, F59S
B15: CD80_211-Fc (Fc fusion)
chain: B1 chain with T28R, E35G, W42M, M47L, A62T, A71G, E85L
notes: also called V11Y, T28R, E35G, M47L, A71G
B16: CD80_212-Fc (Fc fusion)
chain: B1 chain with K9R, E10A, Y11V, E35G, W42M, A62T, V68T, E85L, T101K
notes: also called K9R, E10A, E35G, V68T, T101K
B17: CD80_214-Fc (Fc fusion)
chain: B1 chain with E10G, Y11V, E35G, W42M, D46E, M47V, A62T, V68M, E85L, T101K
notes: also called E10G, E35G, D46E, M47V, V68M, T101K
B18: CD80_215-Fc (Fc fusion)
chain: B1 chain with K9R, E10A, Y11V, E35G, W42M, A62T, V68L
notes: also called K9R, E10A, E35G, V68L, L85E
B19: CD80_216-Fc (Fc fusion)
chain: B1 chain with Y11W, T28Y, W42M, D46V, A62T, R73E, E85L, F92L
notes: also called V11W, T28Y, D46V, R73E, F92L
B20: CD80_217-Fc (Fc fusion)
chain: B1 chain with K9N, E10G, Y11V, W42M, A62T, E85L, Y87K, T101Q
notes: also called K9N, E10G, Y87K, T101Q
B21: CD80_218-Fc (Fc fusion)
chain: B1 chain with Y11W, T28Y, W42M, D46V, A62T, V68T, R73T, E85L, Y87N
notes: also called V11W, T28Y, D46V, V68T, R73T, Y87N
B22: CD80_219-Fc (Fc fusion)
chain: B1 chain with E10S, W42R, A62T, A71V, E85L
notes: also called E10S, V11Y, M42R, A71V
B23: CD80_220-Fc (Fc fusion)
chain: B1 chain with Y11V, H18F, T28V, W42M, M47L, A62T, V68S, E85L
notes: also called H18F, T28V, M47L, V68S
B24: CD80_221-Fc (Fc fusion)
chain: B1 chain with E10G, Y11V, A26S, T28Y, W42M, A62T, E85L
notes: also called E10G, A26S, T28Y
B25: CD80_222-Fc (Fc fusion)
chain: B1 chain with Y11V, E35D, W42M, D46Q, A62T
notes: also called E35D, D46Q, L85E
B26: CD80_223-Fc (Fc fusion)
chain: B1 chain with E10S, Y11V, W42M, A62T, V68M, E85L, Y87P
notes: also called E10S, V68M, Y87P
B27: CD80_224-Fc (Fc fusion)
chain: B1 chain with K9N, Y11W, W42M, M47L, A62T, V68T, R73T, E85L, Y87N
notes: also called K9N, V11W, M47L, V68T, R73T, Y87N
B28: CD80_225-Fc (Fc fusion)
chain: B1 chain with W42M, M47L, A62T, V68T, E85L
notes: also called V11Y, M47L, V68T
B29: CD80_228-Fc (Fc fusion)
chain: B1 chain with E7Q, R29H, W42M, M47L, A62T, V68T, E85L
notes: also called E7Q, V11Y, R29H, M47L, V68T

These binders were tested against T1, human PD-L1 (human, UniProt Q9NZQ7) (assay: flow cytometry, SCC152/PD-L1 cells).
T1 construct: whole, on cells; also called SCC152/PD-L1 cells
Description: Binding affinity to CD28 was determined using primary human T cells which endogenously express CD28. Binding to PD-L1 was determined using SCC152 cells transduced with human PD-L1. Binding to CTLA-4 was measured using Chinese hamster ovary (CHO) cells stably transduced to express human CTLA-4.
For staining and analysis by flow cytometry, 75,000 human T cells, SCC152/PD-L1 cells, or CHO/CTLA-4 cells were plated in 96-well round-bottom plates. Cells were spun down and resuspended in staining buffer (PBS (phosphate buffered saline), 1% BSA (bovine serum albumin), 1 mM EDTA, and 0.1% sodium azide) for 20 minutes to block non-specific binding. Afterwards, cells were centrifuged, stain buffer aspirated, and then resuspended in 50 μL of a 1:5 serial dilution of each CD80-Fc candidate variant starting at 100 nM ending at 0.8 nM. Primary staining was performed on ice for 60 minutes, before washing cells in […] staining buffer three times. PE-conjugated anti-human Fc (Jackson ImmunoResearch, USA) was diluted 1:250 in 50 μL staining buffer and added to cells and incubated another 30 minutes at 4° C. Cells were washed two times in 150 μL stain buffer and then fixed in 2% formaldehyde/PBS for 5 minutes at room temperature. Samples were analyzed CytoFLEX LX flow cytometer (Beckman Coulter, USA). Median Fluorescence Intensity (MFI) was calculated for each cell type using the CytExpert software from Beckman Coulter.

T1 sequence (Q9NZQ7 19-290): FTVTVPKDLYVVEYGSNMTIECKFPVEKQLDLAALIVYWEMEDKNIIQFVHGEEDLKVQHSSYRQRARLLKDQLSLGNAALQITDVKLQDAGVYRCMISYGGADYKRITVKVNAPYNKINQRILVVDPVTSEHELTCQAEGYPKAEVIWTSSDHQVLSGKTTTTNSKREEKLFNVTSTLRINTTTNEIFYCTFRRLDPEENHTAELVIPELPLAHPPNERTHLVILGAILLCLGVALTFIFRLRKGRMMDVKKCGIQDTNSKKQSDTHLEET

Binder	Anti-Human Fc (MFI) at 0.8 nM [MFI]	Anti-Human Fc (MFI) at 4 nM [MFI]	Anti-Human Fc (MFI) at 20 nM [MFI]	Anti-Human Fc (MFI) at 100 nM [MFI]	fold change vs WT CD80 @20 nM [fold]
B1	710	981	1770	3150	2.6
B2	694	859	1480	2920	2.2
B3	680	932	1690	2890	2.5
B4	799	1270	3220	6100	4.7
B5		711	802	811	1.2
B6	1280	1820	2180	2300	3.2
B7	932	1100	1340	1450	2
B8	1050	1910	4170	5030	6.1
B9	685	649	678	817	1
B10	672	806	860	936	1.3
B11	657	623	652	793	1
B12	688	652	653	714	1
B13	666	644	634	746	0.9
B14	688	630	630	640	0.9
B15	922	1550	3830	7020	5.6
B16	698	734	948	1510	1.4
B17	1070	1500	1730	2030	2.5
B18	757	1000	1670	2420	2.4
B19	636	668	786	975	1.2
B20	640	706	759	834	1.1
B21	596	702	740	797	1.1
B22	615	639	730	830	1.1
B23	635	621	622	698	0.9
B24	686	767	809	917	1.2
B25	647	653	683	753	1
B26	669	667	675	796	1
B27	764	856	955	1060	1.4
B28	931	1280	1920	2300	2.8
B29	998	1440	1920	2080	2.8
